These are yes or no findings as the source states them, for the method shown. Some entries that bind do so weakly or less than the wild type. For part of these data: Sequences can lack the tags named with a protein.
T1: mCh-tensin3-FL-cBAK (human) (UniProt Q68CZ2)
T1 sequence: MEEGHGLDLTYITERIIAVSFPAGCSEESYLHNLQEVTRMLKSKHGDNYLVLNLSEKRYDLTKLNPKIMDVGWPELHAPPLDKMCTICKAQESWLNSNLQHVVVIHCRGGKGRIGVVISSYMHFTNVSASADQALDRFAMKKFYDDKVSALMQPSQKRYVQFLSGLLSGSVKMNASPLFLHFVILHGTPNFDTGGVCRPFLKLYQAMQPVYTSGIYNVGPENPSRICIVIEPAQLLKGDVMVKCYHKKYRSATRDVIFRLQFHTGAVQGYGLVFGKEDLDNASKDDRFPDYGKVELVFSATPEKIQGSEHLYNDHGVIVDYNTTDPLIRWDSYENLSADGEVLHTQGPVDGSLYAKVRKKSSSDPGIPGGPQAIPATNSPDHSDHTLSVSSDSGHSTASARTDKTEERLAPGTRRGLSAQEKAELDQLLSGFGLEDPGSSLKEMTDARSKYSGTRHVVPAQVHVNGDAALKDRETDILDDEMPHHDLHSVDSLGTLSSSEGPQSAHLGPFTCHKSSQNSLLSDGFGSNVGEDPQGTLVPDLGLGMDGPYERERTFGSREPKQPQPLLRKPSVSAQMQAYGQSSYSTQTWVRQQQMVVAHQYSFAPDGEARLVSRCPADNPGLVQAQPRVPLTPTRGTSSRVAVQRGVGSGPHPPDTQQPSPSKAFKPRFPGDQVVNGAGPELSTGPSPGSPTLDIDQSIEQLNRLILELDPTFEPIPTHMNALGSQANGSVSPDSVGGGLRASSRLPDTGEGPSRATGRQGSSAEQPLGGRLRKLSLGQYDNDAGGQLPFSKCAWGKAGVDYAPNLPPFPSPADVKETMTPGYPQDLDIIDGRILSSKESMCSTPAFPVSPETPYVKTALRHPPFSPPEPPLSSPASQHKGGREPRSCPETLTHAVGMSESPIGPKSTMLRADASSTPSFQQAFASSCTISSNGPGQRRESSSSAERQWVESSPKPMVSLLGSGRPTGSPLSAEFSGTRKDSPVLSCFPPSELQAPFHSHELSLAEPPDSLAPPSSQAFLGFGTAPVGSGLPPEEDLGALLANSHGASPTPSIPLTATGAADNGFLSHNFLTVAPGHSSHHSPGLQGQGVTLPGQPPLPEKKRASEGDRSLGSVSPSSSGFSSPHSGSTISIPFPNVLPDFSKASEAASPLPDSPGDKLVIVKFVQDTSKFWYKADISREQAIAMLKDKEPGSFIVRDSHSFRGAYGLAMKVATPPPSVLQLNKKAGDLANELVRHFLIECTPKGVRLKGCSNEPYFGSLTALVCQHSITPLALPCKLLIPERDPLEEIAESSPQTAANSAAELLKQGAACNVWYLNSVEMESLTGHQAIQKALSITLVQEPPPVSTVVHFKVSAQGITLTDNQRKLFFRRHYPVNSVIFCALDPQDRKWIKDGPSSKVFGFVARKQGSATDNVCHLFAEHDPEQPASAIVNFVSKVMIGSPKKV

By UniProt entry, the sequences of proteins in these tests, tags left out.
UniProt Q05397: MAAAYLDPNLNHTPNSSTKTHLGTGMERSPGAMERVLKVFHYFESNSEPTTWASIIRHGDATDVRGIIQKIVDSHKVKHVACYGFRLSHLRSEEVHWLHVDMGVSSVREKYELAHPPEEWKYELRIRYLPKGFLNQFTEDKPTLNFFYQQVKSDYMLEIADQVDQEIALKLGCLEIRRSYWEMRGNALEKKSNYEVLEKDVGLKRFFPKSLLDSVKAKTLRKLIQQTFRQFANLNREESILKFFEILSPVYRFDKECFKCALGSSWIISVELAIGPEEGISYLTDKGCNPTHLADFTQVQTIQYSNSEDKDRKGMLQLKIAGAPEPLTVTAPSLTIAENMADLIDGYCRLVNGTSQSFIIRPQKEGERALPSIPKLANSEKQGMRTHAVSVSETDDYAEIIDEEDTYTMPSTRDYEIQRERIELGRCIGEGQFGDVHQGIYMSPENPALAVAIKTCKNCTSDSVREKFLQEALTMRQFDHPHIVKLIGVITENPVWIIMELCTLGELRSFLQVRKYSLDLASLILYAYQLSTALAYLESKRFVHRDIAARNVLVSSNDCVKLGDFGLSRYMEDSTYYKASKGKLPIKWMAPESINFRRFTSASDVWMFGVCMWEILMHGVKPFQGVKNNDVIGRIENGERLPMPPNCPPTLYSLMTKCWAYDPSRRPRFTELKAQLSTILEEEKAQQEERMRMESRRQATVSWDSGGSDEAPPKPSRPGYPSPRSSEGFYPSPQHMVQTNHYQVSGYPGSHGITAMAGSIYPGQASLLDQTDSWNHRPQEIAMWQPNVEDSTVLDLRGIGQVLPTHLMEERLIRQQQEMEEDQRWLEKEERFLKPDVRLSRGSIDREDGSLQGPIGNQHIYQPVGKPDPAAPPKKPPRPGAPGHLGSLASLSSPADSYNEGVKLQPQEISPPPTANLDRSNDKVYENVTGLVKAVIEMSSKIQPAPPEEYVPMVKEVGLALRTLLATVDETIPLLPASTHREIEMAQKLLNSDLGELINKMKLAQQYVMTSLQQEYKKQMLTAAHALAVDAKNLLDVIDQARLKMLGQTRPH
UniProt Q13418: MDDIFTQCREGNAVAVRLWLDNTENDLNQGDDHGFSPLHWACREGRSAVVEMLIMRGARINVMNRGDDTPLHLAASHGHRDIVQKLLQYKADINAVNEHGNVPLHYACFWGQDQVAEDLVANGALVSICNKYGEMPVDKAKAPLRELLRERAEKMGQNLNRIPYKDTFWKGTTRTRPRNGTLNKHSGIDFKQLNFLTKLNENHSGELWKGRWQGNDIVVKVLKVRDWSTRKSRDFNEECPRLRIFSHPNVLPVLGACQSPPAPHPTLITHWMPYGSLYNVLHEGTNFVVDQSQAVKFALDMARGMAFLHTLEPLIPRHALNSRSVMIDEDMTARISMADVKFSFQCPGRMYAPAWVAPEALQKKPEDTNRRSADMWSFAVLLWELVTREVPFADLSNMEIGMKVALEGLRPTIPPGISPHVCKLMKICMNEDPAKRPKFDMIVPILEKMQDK
UniProt Q9Y4G6: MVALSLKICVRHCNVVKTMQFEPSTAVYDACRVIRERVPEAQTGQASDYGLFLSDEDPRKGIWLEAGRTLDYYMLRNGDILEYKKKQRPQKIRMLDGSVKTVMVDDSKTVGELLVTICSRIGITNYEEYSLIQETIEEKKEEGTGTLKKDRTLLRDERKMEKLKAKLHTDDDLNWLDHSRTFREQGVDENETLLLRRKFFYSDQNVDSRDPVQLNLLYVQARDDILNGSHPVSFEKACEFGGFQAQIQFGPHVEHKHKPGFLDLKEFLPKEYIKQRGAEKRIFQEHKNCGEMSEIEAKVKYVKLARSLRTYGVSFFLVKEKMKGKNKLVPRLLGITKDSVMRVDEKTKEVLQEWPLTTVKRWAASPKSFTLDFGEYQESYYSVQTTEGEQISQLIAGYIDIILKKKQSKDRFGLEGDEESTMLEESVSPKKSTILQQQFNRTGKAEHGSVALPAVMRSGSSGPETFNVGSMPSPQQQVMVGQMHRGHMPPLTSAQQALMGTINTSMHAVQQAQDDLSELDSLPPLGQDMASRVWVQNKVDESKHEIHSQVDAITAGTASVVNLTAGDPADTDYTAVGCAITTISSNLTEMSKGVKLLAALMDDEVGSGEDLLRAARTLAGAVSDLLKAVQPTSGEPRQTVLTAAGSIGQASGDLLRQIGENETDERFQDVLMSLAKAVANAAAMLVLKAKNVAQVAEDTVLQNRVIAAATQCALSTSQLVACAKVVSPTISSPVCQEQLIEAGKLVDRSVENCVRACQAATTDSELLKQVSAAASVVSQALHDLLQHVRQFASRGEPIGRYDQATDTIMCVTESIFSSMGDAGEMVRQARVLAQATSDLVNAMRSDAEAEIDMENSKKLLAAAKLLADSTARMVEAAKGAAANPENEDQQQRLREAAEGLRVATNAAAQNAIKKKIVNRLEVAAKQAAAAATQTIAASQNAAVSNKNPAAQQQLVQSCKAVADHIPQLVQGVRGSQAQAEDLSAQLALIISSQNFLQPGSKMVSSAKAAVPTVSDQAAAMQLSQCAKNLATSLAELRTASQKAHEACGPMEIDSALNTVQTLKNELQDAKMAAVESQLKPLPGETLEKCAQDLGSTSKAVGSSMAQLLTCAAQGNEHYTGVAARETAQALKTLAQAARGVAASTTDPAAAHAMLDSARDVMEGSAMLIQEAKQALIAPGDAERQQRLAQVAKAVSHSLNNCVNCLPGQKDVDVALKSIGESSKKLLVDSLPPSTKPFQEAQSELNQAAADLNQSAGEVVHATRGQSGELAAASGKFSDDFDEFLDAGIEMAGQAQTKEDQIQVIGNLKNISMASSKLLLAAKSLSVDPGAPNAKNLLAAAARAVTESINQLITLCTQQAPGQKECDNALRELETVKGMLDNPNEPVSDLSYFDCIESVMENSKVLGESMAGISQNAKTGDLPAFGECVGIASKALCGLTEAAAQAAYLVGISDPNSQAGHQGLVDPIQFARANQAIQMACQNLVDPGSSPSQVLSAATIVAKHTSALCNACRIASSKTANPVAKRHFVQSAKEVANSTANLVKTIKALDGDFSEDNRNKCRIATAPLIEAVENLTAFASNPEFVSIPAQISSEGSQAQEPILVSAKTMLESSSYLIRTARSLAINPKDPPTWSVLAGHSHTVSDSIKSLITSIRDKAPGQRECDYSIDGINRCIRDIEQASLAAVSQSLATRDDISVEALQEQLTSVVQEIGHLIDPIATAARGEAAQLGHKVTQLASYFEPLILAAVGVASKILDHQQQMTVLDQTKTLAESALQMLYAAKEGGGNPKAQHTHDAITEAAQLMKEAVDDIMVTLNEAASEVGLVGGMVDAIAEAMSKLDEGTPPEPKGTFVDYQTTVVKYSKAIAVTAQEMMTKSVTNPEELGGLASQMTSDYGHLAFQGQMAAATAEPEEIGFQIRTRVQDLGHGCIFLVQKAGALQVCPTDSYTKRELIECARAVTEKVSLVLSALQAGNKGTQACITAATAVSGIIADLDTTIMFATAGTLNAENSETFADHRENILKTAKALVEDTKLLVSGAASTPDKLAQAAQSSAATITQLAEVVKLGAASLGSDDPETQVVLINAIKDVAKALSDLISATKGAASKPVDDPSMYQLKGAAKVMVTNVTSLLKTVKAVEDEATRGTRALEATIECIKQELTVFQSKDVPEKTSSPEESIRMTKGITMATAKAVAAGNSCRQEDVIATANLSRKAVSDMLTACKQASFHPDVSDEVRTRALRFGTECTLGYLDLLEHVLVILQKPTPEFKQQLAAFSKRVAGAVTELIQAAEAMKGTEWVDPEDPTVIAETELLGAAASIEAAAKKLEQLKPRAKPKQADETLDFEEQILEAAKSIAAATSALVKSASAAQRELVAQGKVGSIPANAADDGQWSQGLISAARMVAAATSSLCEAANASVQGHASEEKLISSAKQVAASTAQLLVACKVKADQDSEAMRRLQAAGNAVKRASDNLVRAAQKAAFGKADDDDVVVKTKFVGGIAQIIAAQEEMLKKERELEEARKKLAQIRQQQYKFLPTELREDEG
UniProt P26039: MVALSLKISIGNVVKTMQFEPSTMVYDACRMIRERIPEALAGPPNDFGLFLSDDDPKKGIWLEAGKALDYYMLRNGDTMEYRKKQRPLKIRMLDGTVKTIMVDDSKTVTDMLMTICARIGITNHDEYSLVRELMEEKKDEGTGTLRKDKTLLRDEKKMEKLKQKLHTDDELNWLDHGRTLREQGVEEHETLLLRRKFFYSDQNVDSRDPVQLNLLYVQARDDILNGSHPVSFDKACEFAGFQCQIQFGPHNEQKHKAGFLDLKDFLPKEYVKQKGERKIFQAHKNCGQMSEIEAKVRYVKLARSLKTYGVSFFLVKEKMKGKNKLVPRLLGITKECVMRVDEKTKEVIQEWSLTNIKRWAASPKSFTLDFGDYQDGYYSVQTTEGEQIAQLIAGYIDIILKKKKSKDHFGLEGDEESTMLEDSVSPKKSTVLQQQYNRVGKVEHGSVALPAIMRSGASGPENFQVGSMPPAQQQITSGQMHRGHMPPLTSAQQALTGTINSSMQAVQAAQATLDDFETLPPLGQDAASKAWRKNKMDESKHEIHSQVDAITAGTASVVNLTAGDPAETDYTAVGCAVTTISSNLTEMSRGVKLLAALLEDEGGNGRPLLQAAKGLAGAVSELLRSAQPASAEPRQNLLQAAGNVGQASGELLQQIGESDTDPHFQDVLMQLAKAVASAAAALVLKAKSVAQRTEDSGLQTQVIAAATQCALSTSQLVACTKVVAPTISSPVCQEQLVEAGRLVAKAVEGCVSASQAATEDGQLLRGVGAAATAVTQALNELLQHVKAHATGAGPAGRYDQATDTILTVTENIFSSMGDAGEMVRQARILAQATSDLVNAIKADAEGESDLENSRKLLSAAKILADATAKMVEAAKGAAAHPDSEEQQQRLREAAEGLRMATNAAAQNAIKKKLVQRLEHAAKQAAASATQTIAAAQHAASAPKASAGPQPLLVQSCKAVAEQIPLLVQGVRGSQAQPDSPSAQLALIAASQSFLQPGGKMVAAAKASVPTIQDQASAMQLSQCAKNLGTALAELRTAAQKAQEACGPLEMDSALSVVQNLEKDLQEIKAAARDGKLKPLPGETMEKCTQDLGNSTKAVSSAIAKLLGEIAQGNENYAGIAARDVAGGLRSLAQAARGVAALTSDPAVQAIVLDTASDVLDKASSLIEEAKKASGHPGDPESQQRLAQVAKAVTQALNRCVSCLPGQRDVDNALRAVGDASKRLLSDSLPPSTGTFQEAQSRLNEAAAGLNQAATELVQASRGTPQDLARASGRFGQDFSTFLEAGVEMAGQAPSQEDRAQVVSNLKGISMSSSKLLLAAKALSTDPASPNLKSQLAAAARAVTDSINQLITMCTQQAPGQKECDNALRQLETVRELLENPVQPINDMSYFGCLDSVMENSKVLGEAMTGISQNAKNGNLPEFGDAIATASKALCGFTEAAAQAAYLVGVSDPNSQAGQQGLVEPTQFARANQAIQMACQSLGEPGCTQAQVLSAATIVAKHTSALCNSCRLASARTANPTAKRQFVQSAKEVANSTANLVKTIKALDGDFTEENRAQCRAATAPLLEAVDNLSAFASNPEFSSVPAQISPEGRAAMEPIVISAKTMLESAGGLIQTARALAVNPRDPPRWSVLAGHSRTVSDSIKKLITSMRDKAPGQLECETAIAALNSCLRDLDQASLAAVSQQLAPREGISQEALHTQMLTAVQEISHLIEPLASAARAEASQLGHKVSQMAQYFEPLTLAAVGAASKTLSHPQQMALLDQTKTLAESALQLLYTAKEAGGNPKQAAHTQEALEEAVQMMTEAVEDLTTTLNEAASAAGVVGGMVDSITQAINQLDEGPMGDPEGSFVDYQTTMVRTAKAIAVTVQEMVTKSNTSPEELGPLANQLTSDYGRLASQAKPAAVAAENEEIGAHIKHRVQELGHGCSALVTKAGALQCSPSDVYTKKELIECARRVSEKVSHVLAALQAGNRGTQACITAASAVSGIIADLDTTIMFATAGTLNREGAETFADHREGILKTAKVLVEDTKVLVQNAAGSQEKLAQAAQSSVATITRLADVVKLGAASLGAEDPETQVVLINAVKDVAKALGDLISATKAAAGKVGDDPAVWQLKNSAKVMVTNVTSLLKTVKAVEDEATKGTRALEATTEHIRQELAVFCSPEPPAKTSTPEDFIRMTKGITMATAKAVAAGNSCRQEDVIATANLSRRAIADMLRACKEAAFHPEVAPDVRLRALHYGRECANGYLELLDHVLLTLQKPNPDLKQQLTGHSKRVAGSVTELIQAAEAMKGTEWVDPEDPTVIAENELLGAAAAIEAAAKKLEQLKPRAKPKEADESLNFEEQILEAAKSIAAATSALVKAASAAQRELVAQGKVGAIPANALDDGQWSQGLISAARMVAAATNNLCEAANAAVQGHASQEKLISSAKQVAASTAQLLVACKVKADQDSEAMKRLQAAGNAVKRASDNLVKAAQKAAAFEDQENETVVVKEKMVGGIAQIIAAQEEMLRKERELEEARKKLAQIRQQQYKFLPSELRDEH

T2: mCh-tensin2-cBAK (human) (UniProt Q63HR2)
T2 sequence: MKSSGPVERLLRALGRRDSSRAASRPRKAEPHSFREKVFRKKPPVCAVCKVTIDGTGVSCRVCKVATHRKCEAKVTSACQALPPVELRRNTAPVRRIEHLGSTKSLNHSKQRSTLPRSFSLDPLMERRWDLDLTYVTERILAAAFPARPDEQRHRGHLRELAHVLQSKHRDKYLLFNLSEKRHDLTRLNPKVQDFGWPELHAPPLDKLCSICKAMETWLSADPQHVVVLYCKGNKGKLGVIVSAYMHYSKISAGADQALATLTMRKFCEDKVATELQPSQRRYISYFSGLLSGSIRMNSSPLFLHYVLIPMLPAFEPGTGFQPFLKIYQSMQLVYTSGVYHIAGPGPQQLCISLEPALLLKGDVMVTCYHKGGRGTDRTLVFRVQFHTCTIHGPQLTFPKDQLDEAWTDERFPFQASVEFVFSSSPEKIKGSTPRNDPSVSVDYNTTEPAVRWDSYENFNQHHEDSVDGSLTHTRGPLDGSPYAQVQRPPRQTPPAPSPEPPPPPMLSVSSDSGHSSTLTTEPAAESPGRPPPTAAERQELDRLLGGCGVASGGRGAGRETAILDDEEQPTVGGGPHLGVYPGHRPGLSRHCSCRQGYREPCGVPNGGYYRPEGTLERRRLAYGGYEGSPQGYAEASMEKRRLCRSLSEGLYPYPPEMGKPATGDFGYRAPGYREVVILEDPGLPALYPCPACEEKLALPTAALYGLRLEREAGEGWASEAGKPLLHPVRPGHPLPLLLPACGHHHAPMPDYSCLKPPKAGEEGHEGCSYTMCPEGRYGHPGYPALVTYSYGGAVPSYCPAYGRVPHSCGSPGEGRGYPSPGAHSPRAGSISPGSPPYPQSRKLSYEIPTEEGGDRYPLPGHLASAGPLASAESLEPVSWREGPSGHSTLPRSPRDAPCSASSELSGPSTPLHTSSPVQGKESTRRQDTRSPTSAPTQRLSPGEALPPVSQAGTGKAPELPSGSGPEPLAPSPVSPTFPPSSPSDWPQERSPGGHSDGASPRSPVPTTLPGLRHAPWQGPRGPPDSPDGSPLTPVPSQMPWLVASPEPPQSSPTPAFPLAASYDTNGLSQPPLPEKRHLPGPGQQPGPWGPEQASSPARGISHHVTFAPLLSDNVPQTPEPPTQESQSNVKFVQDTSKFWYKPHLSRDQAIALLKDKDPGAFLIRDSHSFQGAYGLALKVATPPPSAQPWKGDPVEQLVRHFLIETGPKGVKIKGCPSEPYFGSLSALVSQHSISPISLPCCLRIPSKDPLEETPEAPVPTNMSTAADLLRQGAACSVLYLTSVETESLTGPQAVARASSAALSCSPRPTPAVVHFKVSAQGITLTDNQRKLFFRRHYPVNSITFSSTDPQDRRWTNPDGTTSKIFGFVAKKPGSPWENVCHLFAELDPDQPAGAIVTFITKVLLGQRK


Experiments:
[1] = molecular target: T1, mCh-tensin3-FL-cBAK (human); assay: mitochondrial targeting and recruitment assay; NIH3T3 cells co-expressing an mCherry- and cBAK-tagged bait at mitochondria with a GFP-tagged partner; co-localisation at mitochondria by fluorescence microscopy
mCh-tensin2-cBAK (human) = molecular target: T2, mCh-tensin2-cBAK (human); assay: as above
[2] = molecular target: T1, mCh-tensin3-FL-cBAK (human); assay: mitochondrial targeting and recruitment assay; NIH3T3 cells expressing an mCherry- and cBAK-tagged tensin at mitochondria; endogenous partner immunostained
[3] = molecular target: T1, mCh-tensin3-FL-cBAK (human); assay: mitochondrial targeting and recruitment assay; vinculin knock-out MEFs expressing mCh-tensin3-FL-cBAK; endogenous talin immunostained

Row | Molecule | binding [1] | binding (mCh-tensin2-cBAK (human)) | binding [2] | binding [3]
1 | GFP-FAK (from UniProt Q05397 1-1052) | binds | no binding | – | –
2 | GFP-ILK (from UniProt Q13418 1-452) | binds | binds | – | –
3 | GFP-talin2 (from UniProt Q9Y4G6 1-2542) | binds | no binding | – | –
4 | endogenous paxillin (from UniProt Q8VI36 1-591) | – | – | binds | –

Now from value to molecule:

Row | binding [1] | binding (mCh-tensin2-cBAK (human)) | binding [2] | binding [3] | Molecule
5 | binds | binds | – | – | GFP-paxillin (from UniProt P49023 1-591)
6 | binds | no binding | – | – | GFP-talin1 (from UniProt P26039 1-2541)
7 | – | – | binds | binds | endogenous talin1 (from UniProt P26039 1-2541)
8 | binds | no binding | – | – | GFP-KANK2 (protein, UniProt Q63ZY3 1-851) MAQVLHVPAPFPGTPGPASPPAFPAKDPDPPYSVETPYGYRLDLDFLKYVDDIEKGHTLRRVAVQRRPRLSSLPRGPGSWWTSTESLCSNASGDSRHSAYSYCGRGFYPQYGALETRGGFNPRVERTLLDARRRLEDQAATPTGLGSLTPSAAGSTASLVGVGLPPPTPRSSGLSTPVPPSAGHLAHVREQMAGALRKLRQLEEQVKLIPVLQVKLSVLQEEKRQLTVQLKSQKFLGHPTAGRGRSELCLDLPDPPEDPVALETRSVGTWVRERDLGMPDGEAALAAKVAVLETQLKKALQELQAAQARQADPQPQAWPPPDSPVRVDTVRVVEGPREVEVVASTAAGAPAQRAQSLEPYGTGLRALAMPGRPESPPVFRSQEVVETMCPVPAAATSNVHMVKKISITERSCDGAAGLPEVPAESSSSPPGSEVASLTQPEKSTGRVPTQEPTHREPTRQAASQESEEAGGTGGPPAGVRSIMKRKEEVADPTAHRRSLQFVGVNGGYESSSEDSSTAENISDNDSTENEAPEPRERVPSVAEAPQLRPAGTAAAKTSRQECQLSRESQHIPTAEGASGSNTEEEIRMELSPDLISACLALEKYLDNPNALTERELKVAYTTVLQEWLRLACRSDAHPELVRRHLVTFRAMSARLLDYVVNIADSNGNTALHYSVSHANFPVVQQLLDSGVCKVDKQNRAGYSPIMLTALATLKTQDDIETVLQLFRLGNINAKASQAGQTALMLAVSHGRVDVVKALLACEADVNVQDDDGSTALMCACEHGHKEIAGLLLAVPSCDISLTDRDGSTALMVALDAGQSEIASMLYSRMNIKCSFAPMSDDESPTSSSAEE

Reference: PMC9462884, “Tensin3 interaction with talin drives the formation of fibronectin-associated fibrillar adhesions” (The Journal of Cell Biology, 2022)
